Assay results from article PMC4336329 (PLoS ONE, 2015).
The campaign covered roughly 310,000 compounds. About 14,000 (4.5%) showed an effect of 50% or more. Effects have a minus sign here. Some of the results follow.

target: human ether-à-go-go-related gene (hERG) potassium channel (human, UniProt Q12809); assay: primary screen, population patch clamp on CHO cells stably expressing hERG
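Note: peak tail current of the secondary pulse compared with the same well before compound.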

Chain of human ether-à-go-go-related gene (hERG) potassium channel (Q12809 whole entry, looked up): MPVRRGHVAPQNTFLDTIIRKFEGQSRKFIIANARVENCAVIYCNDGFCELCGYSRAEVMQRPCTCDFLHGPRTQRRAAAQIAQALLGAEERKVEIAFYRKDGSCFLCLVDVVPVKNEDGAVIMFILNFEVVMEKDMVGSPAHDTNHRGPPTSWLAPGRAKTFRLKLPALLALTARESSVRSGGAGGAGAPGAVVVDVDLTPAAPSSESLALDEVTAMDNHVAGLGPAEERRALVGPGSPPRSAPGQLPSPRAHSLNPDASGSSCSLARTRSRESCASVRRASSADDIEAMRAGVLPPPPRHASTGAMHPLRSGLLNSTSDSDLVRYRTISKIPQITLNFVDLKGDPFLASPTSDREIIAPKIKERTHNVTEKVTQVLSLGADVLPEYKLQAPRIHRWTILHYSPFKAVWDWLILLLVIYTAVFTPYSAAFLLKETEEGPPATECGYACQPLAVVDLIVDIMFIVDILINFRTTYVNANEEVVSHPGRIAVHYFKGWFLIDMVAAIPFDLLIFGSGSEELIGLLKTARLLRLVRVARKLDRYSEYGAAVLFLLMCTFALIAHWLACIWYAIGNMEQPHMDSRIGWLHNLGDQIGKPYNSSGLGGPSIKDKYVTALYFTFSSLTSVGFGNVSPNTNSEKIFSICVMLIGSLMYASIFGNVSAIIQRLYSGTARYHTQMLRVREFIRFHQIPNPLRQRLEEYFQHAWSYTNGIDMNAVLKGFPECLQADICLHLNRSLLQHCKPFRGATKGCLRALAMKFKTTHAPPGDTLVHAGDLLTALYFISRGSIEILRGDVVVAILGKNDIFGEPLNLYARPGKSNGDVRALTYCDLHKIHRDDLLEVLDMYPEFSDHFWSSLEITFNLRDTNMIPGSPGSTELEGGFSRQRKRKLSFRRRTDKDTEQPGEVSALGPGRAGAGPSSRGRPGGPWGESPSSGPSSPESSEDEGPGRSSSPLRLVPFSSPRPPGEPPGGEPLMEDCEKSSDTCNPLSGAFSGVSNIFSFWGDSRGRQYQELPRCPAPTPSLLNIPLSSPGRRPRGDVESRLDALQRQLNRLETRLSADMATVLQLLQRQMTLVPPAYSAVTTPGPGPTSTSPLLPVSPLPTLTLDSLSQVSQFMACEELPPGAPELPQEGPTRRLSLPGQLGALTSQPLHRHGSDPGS

SMILES | hERG current change (%, negative = inhibition) at 10uM [%]
O=C(N/N=C1\CCc2ccccc21)c1ccccc1Cl | 19.2
CCCN(CC(=O)Nc1ccccc1C)C(=O)C1CCN(S(=O)(=O)c2ccccc2C(F)(F)F)CC1 | -21.5
CCOc1ccccc1NC(=S)N(CCN(C)C)C(C)c1ccncc1 (stereo not shown) | -15.3
N#Cc1ccc(CN2CCN(C(=O)c3ccc(S(=O)(=O)N4CCCCCC4)cc3)CC2)cc1 | -40.9
Cc1ccc(SCCOCCN2CCc3ccccc3C2)cc1 | -60.5
O=C(c1ccccc1OCc1ccccc1Br)N1CCN(c2ncccn2)CC1 | -37.2
Cc1cc(Br)cc(C=Nc2ccc(N3CCOCC3)cc2)c1O | 13.6
Cc1cc(Br)ccc1NC(=O)CNC(=O)CNc1cccc([N+](=O)[O-])c1 | -13.6
COc1ccccc1N1CCN(C(=O)CN(C)S(=O)(=O)c2ccc3c(c2)c(=O)n(C)c(=O)n3C)CC1 | 15.2
CCOc1ccc(-n2cc(C(=O)NCCOC)c3cc(OC)c(OC)cc3c2=O)cc1 | 12.6
O=C(CCC1CCCCC1)Nc1ccc(C(=O)c2ccncc2)cc1 | -12.2
COC(=O)[C@@H](NC(=O)NC1CCCc2ccccc21)C(C)C (stereo partly shown) | 9.47
Cc1onc(-c2ccccc2Cl)c1C(=O)Nc1ccccc1C(N)=O | -1.89
COc1ccccc1Cn1c(SCC#N)nc2cc(C(=O)N3CCC4(CC3)OCCO4)ccc2c1=O | -0.426
Cc1nn(C)c(C)c1C1C(C#N)=C(N)OC2=C1C(=O)CC(C)(C)C2 (stereo not shown) | -12.3
O=C(CCc1nc2ccccc2s1)NCc1ccccc1F | 23.7
NC(=O)CSc1nc2scc(-c3ccco3)c2c(=O)n1-c1ccccc1 | -4.9
CCOc1ccc(NC(=S)NCc2ccc3[nH]c(C)cc3c2)cc1 | 23.5
Nn1c(SCC(=O)NCc2ccccc2)nncc1=O | 6.47
Cc1ccc(S(=O)(=O)N(C)CC(=O)NNC(=O)Cc2cccc(F)c2)cc1 | -0.829
Cc1cc(C)cc(-n2ncc3c2CCCC3NC(=O)c2cc(C)[nH]n2)c1 (stereo not shown) | -67.5
Fc1ccc(Nc2nc(-c3cccnc3)cs2)cc1 | 20.6

SMILES | hERG current change (%, negative = inhibition) at 10uM [%]
Cn1cc(CN2CCC(Oc3ccc(C(=O)N4CCCCC4)cc3)CC2)cn1 | 8.81
CCn1c(SCc2ccc(F)cc2)nc2ccccc2c1=O | 24.9
CCn1cc(C(=O)N2CCN(C(=O)c3ccco3)CC2)c2cc(OC)c(OC)cc2c1=O | 7.72
COc1cccc(C(=O)N[C@@H](CCSC)c2nc3ccccc3[nH]2)c1 | 3.84
O=C1c2ccccc2C(=O)N1c1n[nH]c(CCc2ccccc2)n1 | -4.06
O=C(CCSCc1ccc(Cl)cc1)NCCC1=CCCCC1 | 11.4
CCOC(=O)C1=C(N)n2c(s/c(=C\c3cccs3)c2=O)=C(C(=O)OCC)C1c1cccs1 (stereo not shown) | 7.19
CCCCC(=O)Nc1nnc(CCOC)s1 | -6.9
Cc1ccccc1NC(=S)Nn1cnnc1 | 16.7
Cn1c(=O)c2c(nc(Oc3ccc4c(c3)OCO4)n2Cc2ccc(Cl)cc2)n(C)c1=O | 9.89
CC1CCCN(S(=O)(=O)c2ccc(NC(=O)C3CCN(C(=O)C(C)(C)C)CC3)cc2)C1 (stereo not shown) | -5.21
Cc1ccc(Cn2nnc3c(=O)n(CC(=O)N4CCCCC4)cnc32)cc1 | -11.1
COc1cccc(C(CC(=O)Nc2cccc3ccccc23)NC(=O)c2ccccc2)c1 (stereo not shown) | 3.42
Cn1nc(C(=O)Nc2sccc2C(N)=O)ccc1=O | 15.3
COc1ccc(Br)cc1CNC(C)c1ccccc1 (stereo not shown) | -19.8
CN1CCN(c2c(F)cc3c(=O)c(C(=O)O)cn4c3c2SCC4)CC1.Cl | 13.6
COc1ccccc1N1CCN(C(=O)c2cccs2)CC1 | 1.78
CCOc1ccc(-n2c(SCc3nc(-c4ccc(C)cc4)no3)nnc2-c2ccncc2)cc1 | -73.2
O=C(NCC(O)CO)c1csc(Nc2cccc3ccccc23)n1 (stereo not shown) | -2.43
Cc1nn(CC(=O)NCc2ccccc2)c(C)c1[N+](=O)[O-] | -1.51
CC(=O)c1ccc(NC(=O)C(C)Sc2nnc3ccccn23)cc1 (stereo not shown) | -4.83
CN(C)c1nc(N)c2ncc(=S)[nH]c2n1 | 16.9

SMILES | hERG current change (%, negative = inhibition) at 10uM [%]
Cc1ccccc1C(OCC(O)CN1CCCCC1CCO)c1ccccc1 (stereo not shown) | -61.6
Brc1cccc(CNn2cnnc2)c1 | 14.5
CCCn1nc(C(=O)NC2CC2)c2ccccc2c1=O | -19.8
Cn1c(CSc2nc3ccccc3s2)nnc1SCC(=O)NCCN1CCOCC1 | 6.22
O=C(COC(=O)C1CCN(S(=O)(=O)c2cccc3cccnc23)CC1)c1ccccc1 | 7.23
N#C/C(=C\c1ccc([N+](=O)[O-])cc1)C(=O)Nc1ccccc1O | -5.87
CCn1cc(C(=O)NC(C)CCc2ccccc2)c(=O)c2cc(S(=O)(=O)N(C)C)ccc21 (stereo not shown) | -21.1
COc1ccc(Nc2ccc(S(=O)(=O)N3CCCCC3)cc2[N+](=O)[O-])cc1Cl | -4.46
Cc1ccc(-n2nnnc2SC(C)C(N)=O)c(C)c1 (stereo not shown) | 11.9
Cc1cccc2nc(CSc3ncccc3C(=O)O)cn12 | 13.3
CC(NC(=O)C12CC3CC(CC(C3)C1)C2)c1ccc2c(c1)OCCO2 (stereo not shown) | 6.1
CC(C)(C)OC(=O)N1CCC(C(=O)N2CCOCC2)CC1 | 11.3
COc1ccccc1-c1noc(CCC(=O)Nc2ccccc2Cl)n1 | -4.71
Cl.Nc1nc(C2C(=O)CCCC2=O)cs1 | 9.89
Cc1sc(NC(=O)c2cccs2)c(C(=O)OC(C)C)c1C | 12
CCn1c(NC(=O)c2nn(C)cc2Br)nc2ccccc21 | -7.65
Cc1nc2ccccc2c(=O)n1NC(=O)c1ccccc1F | 5.02
Cc1ccc(C(=O)N/C(=C/c2ccc(-c3ccc(Br)cc3)o2)C(=O)NC2CCS(=O)(=O)C2)cc1 (stereo not shown) | -6.35
COc1ccc(NC(=O)NCCCN2CCCCC2C)cc1 (stereo not shown) | -10.6
CC(C)(CO)NC(=O)c1ccc2c(c1)C(=O)c1ccccc1-2 | 0.123
Cc1ccccc1C(=O)NCC(=O)Nc1ccc(C)c(S(=O)(=O)N2CCCCCC2)c1 | -44.1
CNC(=O)c1cc2cc(Cl)cc(OC)c2oc1=O | 11.8

SMILES | hERG current change (%, negative = inhibition) at 10uM [%]
COC(=O)c1ccc(COc2ccc(-c3nnn(CC(=O)NC(C)(C)C)n3)cc2)cc1 | 10.6
O=C(NC(=S)Nc1ccc2oc(=O)ccc2c1)c1ccco1 | 9.84
Cc1ccc(-c2nc(CSCC(=O)N3CCN(c4ccccn4)CC3)c(C)o2)cc1 | -25
CC(C)[C@H]1C=C(C(=O)O)O[C@@H](OCc2ccc(CO)cc2)C1 | 7.27
O=C(CSCc1ccc(Br)cc1)NCc1ccccn1 | 3.67
CCOC(=O)N1CCN(c2c(NCCc3ccc(OC)c(OC)c3)c(=O)c2=O)CC1 | 2.71
COc1ccc(N)cc1C#N | -1.71
Cc1ccc(-c2oc3ccccc3c(=O)c2OCC(=O)O)cc1 | 7.74
O=C(Nc1ccc(Oc2ccccc2)cc1)C1CCN(c2ncccn2)CC1 | 0.064
Cc1nn(CC(=O)N(C)Cc2ccccc2)c(=O)c2cccn12 | 16.7
O=C(CN1CCCN(Cc2ccc(F)cc2Cl)C1=O)NC1CCCC1 | 5.61
COC(=O)c1ccccc1NC(=O)NCCc1ccc(OC)c(OC)c1.Cl | 27.7
Cc1cc(N2C(=O)CC(N3CCN(c4ccc(C(=O)c5cccs5)cc4)CC3)C2=O)no1 (stereo not shown) | -37.3
COc1ccc(C(=O)Nc2ccccc2NC(=O)c2ccco2)cc1OC | -26.3
CCOC(=O)c1[nH]cnc1C(=O)Nc1ccncc1 | -2.36
Cc1cccc(-n2c(CCn3nc(C)c([N+](=O)[O-])c3C)n[nH]c2=S)c1 | 6.85
O=C(CSc1n[nH]c(=O)n1C1CC1)Nc1ccc(Cl)c(Cl)c1 | -19.6
Nc1ccc2nc(-c3ccc(Cl)cc3)[nH]c2c1 | -5.75
COc1ccc(N2C(=NC(C)=O)SC3CS(=O)(=O)CC32)cc1OC (stereo not shown) | -2.83
COC(=O)c1ccc(N2CCN(C)CC2)c(NC(=O)COc2ccccc2)c1 | -43.9
COc1ccc(-n2c(Cc3cccn3C)nnc2SCC(=O)Nc2ccc(F)cc2F)cc1 | -57.4
C=C1C(=O)O[C@@H]2C[C@@H](C)[C@@H]3C=CC(=O)[C@@]3(C)[C@@H](OC(=O)CC(=O)O[C@H]3[C@@H]4C(=C)C(=O)O[C@@H]4C[C@@H](C)[C@@H]4C=CC(=O)[C@]43C)[C@H]12 | -38.6
